Experimental data reported in PubChem BioAssay AID686978 (National Center for Advancing Translational Sciences (NCATS), 2013).
Out of some 420,000 compounds screened, about 64,000 (15%) were called active. The inconclusive results got no clear call from the source; some entries with a clear call stand among them for comparison. The call rests on the fitted dose curve; in most records, active means well fitted inhibition curve with a large enough effect; inconclusive means small, poorly fitted or top-dose-only effect; inactive means flat fitted curve, though single readings scatter. Potencies of inconclusive entries are left out as doubtful fits.

Test: qHTS for Inhibitors of human tyrosyl-DNA phosphodiesterase 1 (TDP1): qHTS in cells in absence of CPT; further: nearly all actives have a fitted effect of over 55% in size
Conditions: DT40 Tdp1-/- hTDP1 cells, no CPT, ATP luminescence, 48 h; activity change, negative = growth inhibition: at 46.2 µM (top of the series)
Method in brief: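 Seeded 400 DT40-hTDP1 cells/well (vehicle DMSO, no 20 nM CPT); pinned compounds; ≥48 hr at 37 °C; CellTiter-Glo luminescence as viability measure.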
On the % scale 0 is the no-effect control and ±100 the full control effect; potency means the concentration at half of the fitted maximal effect; tags describe the fitted curve by direction and shape.

SMILES | Potency | activity change, negative = growth inhibition
COCC(C)n1c(C)cc(C(=O)CN2c3cccc4cccc(c34)S2(=O)=O)c1C (centres undefined) | inconclusive [inhibitor, single point] | –
COc1ccc(S(=O)(=O)NCC2(N3CCOCC3)CCCCC2)cc1OC | – | inactive: -16.5%
CCCCN1C(=N)N([C@@H](CCC)CN2CCC[C@H]2CN2C(N)=NC[C@@H]2Cc2ccccc2)C[C@H]1[C@H](C)CC | active: 11.6 µM | –
CN(C)CCNC(=O)c1ccc2c(=O)n(Cc3ccc(Cl)cc3)c(=S)[nH]c2c1 | active: 29.1 µM | –
NC(=O)c1c(NC(=O)CSc2nnc(-c3ccco3)n2N)sc2c1CCCC2 | inconclusive [inhibitor, single point] | –
Cc1cc(C)n2nc(SCC(=O)NC3CCCC(C)C3C)nc2n1 (centres undefined) | – | inactive: 28.6%
NC(=O)c1ncn([C@@H]2O[C@H](CNCc3ccccc3OCc3ccc(Cl)cc3Cl)[C@@H](O)[C@H]2O)n1 | – | inactive: -18%
Cc1c(NC(=O)COC(=O)c2cc3c4ccccc4n(C)c3s2)c(=O)n(-c2ccccc2)n1C | – | inactive: -30%
COc1ccccc1NC(=S)N1CCN(c2ccc(F)cc2)CC1 | inconclusive [inhibitor, full curve] | –
COc1ccc(S(=O)(=O)N2CCCC2CNC(=O)C(=O)Nc2ccc(F)cc2)cc1 (centres undefined) | inconclusive [inhibitor, partial curve] | –
O=[N+]([O-])c1cc2c(cc1[N+](=O)[O-])OCCOCCOCCOCCO2 | – | inactive: -1.71%
Nc1nc(Nc2ccc(Cl)cc2)nc2ccccc12 | active: 5.8 µM | –
Fc1ccc(-c2cn3cc(C(F)(F)F)cc(Cl)c3n2)cc1 | – | inactive: -28.7%
CC(=O)c1ccc(OCC(C)Oc2ccc(C#N)cc2)cc1 (centres undefined) | active: 23.1 µM | –
COCCCN1C(=O)c2ccc(C(=O)OCC(=O)N3CCN(c4ccccc4)CC3)cc2C1=O | – | inactive: -10.1%
COc1ccc(Nc2cc(C)c3cc(NC(=O)COc4cccc(C)c4)ccc3n2)cc1 | active: 14.6 µM | –
COc1ccc(/C=C(/C(=O)NCc2ccccc2)c2ccccc2)cc1 | active: 20.6 µM | –
CN(CC[C@@H](Oc1ccc(-c2ccccc2)cc1)c1ccc(F)cc1)CC(=O)O | inconclusive [inhibitor, single point] | –
COc1ccc2nc(NC(=O)c3nc(S(=O)(=O)Cc4ccc(C)cc4)ncc3Cl)sc2c1 | active: 2.31 µM | –
Cc1cccc(N2CCN(C(=O)CCNS(=O)(=O)c3ccc4c(c3)CCN4C(=O)C3CC3)CC2)c1C | active: 18.4 µM | –
Cc1cc(/C=C2/NC(=O)NC2=O)c(C)n1-c1sc2c(c1C#N)CCCC2 | inconclusive [inhibitor, single point] | –
O=C(CN1C(=O)c2ccccc2Sc2ncccc21)Nc1cccc(C(F)(F)F)c1 | inconclusive [inhibitor, single point] | –
CN(C)c1ccc(C=NCCC2(O)CCOC(C)(C)C2)cc1 (centres undefined) | – | inactive: -15.4%
O=C(Nc1ccc(NC(=O)c2cccs2)cn1)c1ccco1 | – | inactive: -24%
COc1cccc(NC(=O)C2(C)CCN2C(=O)CCc2ccc(Cl)cc2Cl)c1 (centres undefined) | inconclusive [inhibitor, single point] | –

SMILES | Potency | activity change, negative = growth inhibition
CCCCCCCCCC(=O)O | inconclusive [inhibitor, single point] | –
O=C(COc1ccc(S(=O)(=O)N2CCOCC2)cc1Cl)NC1CCCCC1 | – | inactive: -21%
CCN1C(=O)/C(=C/C=C2/Sc3ccc4ccccc4c3N2CCO)SC1=S | inconclusive [inhibitor, partial curve] | –
Cc1cc(C)c(Cn2cnc3nc4c(cc3c2=O)CCCC4)c(C)c1 | inconclusive [inhibitor, single point] | –
COc1ccc(C(=O)N2CCN(Cc3ccccc3)CC2)cc1[N+](=O)[O-] | inconclusive [inhibitor, single point] | –
Cc1ccc(NC(=O)c2cc(NC(=O)c3ccco3)ccc2N2CCOCC2)cc1 | active: 16.4 µM | –
O=C(CNC(=O)OCc1ccccc1)NCC(=O)N1CCCC1C(=O)OCc1ccccc1 (centres undefined) | – | inactive: -21.5%
O=C(O)c1ccc(N/N=C/c2ccc(C(F)(F)F)cc2)cc1 | – | inactive: 5.87%
NC(Cc1cnc[nH]1)C(=O)Nc1ccc2ccccc2c1 (centres undefined) | – | inactive: 0.701%
CCNC(=O)C1(C)CCN1C(=O)Cc1ccc(C(C)C)cc1 (centres undefined) | – | inactive: -28.7%
Cc1ccc(O)c(CNc2nc3ccccc3n2C)c1 | inconclusive [inhibitor, single point] | –
Cc1ccc(C(=O)OCC(=O)NC2CCCC(C)C2C)s1 (centres undefined) | inconclusive [inhibitor, single point] | –
CCOC(=O)CC1ON(C)C(=O)N1c1ccc([N+](=O)[O-])cc1 (centres undefined) | inconclusive [inhibitor, single point] | –
COc1ccc(OC)c(NC(=O)C2CCN(C(=O)C3CC(=O)N(c4ccc(C)cc4)C3)CC2)c1 (centres undefined) | inconclusive [inhibitor, single point] | –
CCc1cc(=O)oc2c(C)c(OCC(=O)Nc3ccc(S(=O)(=O)N(CC)CC)cc3)ccc12 | inconclusive [inhibitor, single point] | –
CCOc1ccc(C(=O)NCC(c2ccc3c(c2)OCO3)N2CCN(C)CC2)cc1 (centres undefined) | – | inactive: 0.621%
CC(C)(C)n1nnnc1C(c1cccs1)N(Cc1ccc(Cl)cc1)CC1CCCO1 (centres undefined) | active: 16.4 µM | –
CCOc1ccc2nc(Cl)c(C3CC(c4ccccc4)=NN3C(=O)CCC(=O)O)cc2c1 (centres undefined) | – | inactive: -15.4%
CCCc1ccc(C(O)c2ncc(-c3ccc(OC)cc3)[nH]2)cc1 (centres undefined) | inconclusive [inhibitor, partial curve] | –
CCC(C)NC(=S)Nc1ccc(F)cc1 (centres undefined) | – | inactive: -22.1%
O=S(=O)(c1ccc(F)cc1)N1CCN(Cc2ccccn2)CC1 | – | inactive: -29.7%
O=C(NCCc1ccccc1)C1CCN(Cc2cccc3ccccc23)CC1 | inconclusive [inhibitor, single point] | –
CC(C)c1cccc(C(C)C)c1NC(=O)COc1nncc2ccccc12 | inconclusive [inhibitor, single point] | –
C/C(=N\Nc1nc(-c2ccccn2)nc2ccccc12)c1ccc(F)cc1 | active: 5.8 µM | –
